Source: the supplement of paper PMC3724861
This is one part of the list.

test system: T1, Caupolican (Caup) homeodomain DNA-binding domain; test: PBM E-score (8-mer, recovered from the published 9-mer minima) (E-score (dimensionless, -0.5 to 0.5)); Drosophila protein; higher = stronger relative binding preference, active = 0.31 or more
T1 sequence: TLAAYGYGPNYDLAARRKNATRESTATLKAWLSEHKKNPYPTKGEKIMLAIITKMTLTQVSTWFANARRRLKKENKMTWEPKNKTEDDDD
Summary of the method: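 Caup's homeodomain DNA-binding domain (residues 214-303) was made by in vitro transcription and translation and applied at 100 nM to custom-designed protein binding microarrays. Each value is an enrichment score that gives relative binding preference for a short DNA word, with higher meaning stronger. The 8-mer values were recovered from published 9-mer scores, each of which was the minimum of its two constituent 8-mer scores. A cutoff of 0.31 marks candidate sites.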

Row | Sequence | PBM E-score
1 | TCACCACA | inactive: 0.0513
2 | CAGGTATC | inactive: 0.134
3 | ATGTATTG | active: 0.344
4 | AATTCCTG | inactive: 0.0715
5 | CAGACAGC | inactive: -0.0168
6 | GTGCGTAA | inactive: 0.00367
7 | ACAAGAGC | inactive: 0.168
8 | GTCTCATA | inactive: 0.0899
9 | TGGAACAA | inactive: 0.209
10 | CTTCGCAC | inactive: -0.0448
11 | AGTTACGG | inactive: -0.0308
12 | AATGCGCA | inactive: 0.0385
13 | AATTGACA | inactive: 0.203
14 | CGTAGGGC | inactive: -0.165
15 | AGCCTAGA | inactive: -0.0778
16 | TCCCTCCA | inactive: -0.187
17 | ACGCCGCA | inactive: -0.12
18 | CATAGAAG | inactive: 0.12
19 | AACTAACC | inactive: 0.137
20 | ATTGTCAA | inactive: 0.183
21 | ACCTAAGT | ≥ 0.0447
22 | CGAGAGCC | inactive: -0.232
23 | CAGTTACC | inactive: 0.0281
24 | ACGGGACT | inactive: -0.0525

Row | Sequence | PBM E-score
25 | GATAAATC | inactive: -0.0135
26 | AAAAGCGC | inactive: -0.076
27 | GAAATGGC | inactive: -0.164
28 | TCATTCCA | inactive: 0.0323
29 | GTGCCGCA | inactive: -0.121
30 | TCGAGGCA | inactive: -0.0839
31 | CAATGGCG | inactive: -0.144
32 | AGCTCGAA | inactive: -0.141
33 | AAGTATAA | inactive: 0.115
34 | ACGGCACC | inactive: -0.189
35 | GCCCACAA | inactive: -0.174
36 | CATTCCTA | inactive: 0.0424
37 | ACTCCTTA | inactive: -0.067
38 | TCGAATCA | inactive: 0.0594
39 | AATACTGC | inactive: -0.0125
40 | CAGCCGGA | inactive: -0.0402
41 | CAACCCGA | inactive: -0.0228
42 | CGTTTCGA | inactive: 0.0154
43 | ACGTGGCC | inactive: -0.139
44 | ATTAATTA | inactive: 0.218
45 | AGGAGTGA | inactive: -0.0269
46 | AAACTACC | inactive: 0.168
47 | AGAGGGGG | inactive: -0.383
48 | AAACACGG | inactive: 0.257

Row | Sequence | PBM E-score
49 | ACGCGAAG | inactive: 0.0134
50 | ACATTGTG | inactive: 0.229
51 | ACATGGCA | inactive: 0.307
52 | AACCCCAT | inactive: -0.0114
53 | CAAGCACG | inactive: 0.0458
54 | GCGGCGTA | inactive: -0.0911
55 | AACCCCAC | inactive: -0.131
56 | GACTCCCC | inactive: -0.259
57 | CCCGTCCG | inactive: -0.302
58 | ACTCCAGC | inactive: -0.185
59 | CCAATCCA | inactive: -0.043
60 | GCGACAGC | inactive: -0.0556
61 | AAGATGCT | inactive: 0.00975
62 | AAGAATGA | inactive: 0.103
63 | TCTTCCCA | inactive: -0.106
64 | AACCTTGT | inactive: 0.207
65 | CGCTAGCG | inactive: -0.261
66 | CAGGGGTA | inactive: -0.133
67 | ACCACTAG | inactive: 0.0829
68 | ACCGTCAT | ≥ 0.00505
69 | CGGCCCAG | inactive: -0.277
70 | CCTCGACG | inactive: -0.188
71 | AGGGTTGG | inactive: -0.0294
72 | CAATTTTA | inactive: 0.0719

Row | Sequence | PBM E-score
73 | TACCGATA | inactive: 0.065
74 | AATTGTCT | inactive: 0.111
75 | CGAACTCC | inactive: 0.00427
76 | CAACCCCG | inactive: -0.147
77 | GCCTCAGA | inactive: -0.161
78 | AACCCAGC | inactive: -0.153
79 | GCGGACAC | inactive: -0.0411
80 | GCCTATAA | inactive: -0.0055
81 | AGAATTTG | inactive: 0.0543
82 | GTGTCAAC | inactive: 0.272
83 | AAAGCTGG | inactive: -0.142
84 | TATATCCA | inactive: 0.091
85 | AACCAGGG | inactive: -0.0676
86 | ATGCAACA | inactive: 0.277
87 | CACAGTCG | inactive: -0.00664
88 | CATTCAAA | inactive: 0.0764
89 | AGCTCCCG | inactive: -0.243
90 | ATATATAC | inactive: 0.181
91 | GCTCCGTA | inactive: -0.155
92 | GTAGGAAA | inactive: 0.0479
93 | TGAAAGCA | ≥ 0.0589
94 | CTGAGCCA | inactive: -0.172
95 | ACGATCAG | inactive: 0.0119
96 | GTAACCTA | inactive: 0.112

Row | Sequence | PBM E-score
97 | GCTCCAAC | inactive: -0.0892
98 | AACATCTC | inactive: 0.254
99 | AAACTTTG | inactive: 0.113
100 | GGGCCCTA | inactive: -0.27
101 | GGCGTCAC | inactive: -0.217
102 | AACGAAAC | inactive: 0.131
103 | TACTCATA | inactive: 0.14
104 | CCTAAAAC | inactive: -0.07
105 | AGGATTAC | inactive: 0.125
106 | ATCGCCAC | inactive: -0.0796
107 | CTTCCACA | inactive: -0.0269
108 | GGTCTGGA | inactive: -0.118
109 | ACGAGCTA | inactive: 0.0174
110 | GAAATCCC | inactive: -0.0261
111 | ATGTTAAG | inactive: 0.283
112 | GGACACCA | inactive: 0.0485
113 | GAGCACTC | inactive: -0.102
114 | CTTGATAC | inactive: 0.182
115 | GCCATAAC | inactive: 0.0397
116 | AAGCGCAC | inactive: -0.125
117 | CAGGCGCC | inactive: -0.205
118 | GGCAACTA | inactive: 0.0502
119 | CAACATCG | inactive: 0.228
120 | ACGGGTAT | inactive: 0.0804

Row | Sequence | PBM E-score
121 | GATAAACA | inactive: 0.205
122 | CGGATCAG | inactive: -0.0772
123 | ACATAGGG | inactive: 0.0944
124 | GCTTTACA | inactive: 0.188
125 | ACGTTTAA | inactive: 0.169
126 | ATCTTTGC | inactive: 0.0423
127 | CAACGTTG | inactive: 0.134
128 | GGCGTCCA | inactive: -0.199
129 | AATTCGGA | inactive: 0.0276
130 | CTCGTTAA | inactive: 0.0879
131 | AGTCAAAC | inactive: 0.0338
132 | GCAAACAA | inactive: 0.194
133 | CAAGTAAC | inactive: 0.246
134 | CGAGGCTA | ≥ 0.0337
135 | GCACTCTA | inactive: -0.0337
136 | ATGTATGA | active: 0.352
137 | CCCATTGA | inactive: -0.15
138 | GCCATCAC | inactive: -0.0783
139 | AACGAGTT | inactive: 0.048
140 | CAACTAAA | inactive: 0.187
141 | AAGTGTCC | inactive: 0.011
142 | AACTAGTA | inactive: 0.245
143 | AGAATACT | inactive: 0.169
